In all, about 190,000 compounds went through this assay and about 520 (0.27%) were called active. Inconclusive means that the source gave no clear call. Such entries were picked first, then a sample of the others.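 How the source made its calls: active means GTP binding activity at least 20 points away from the 100% control level, either lower or higher; inconclusive means compound flagged as likely green fluorescent, judged across all proteins; inactive means the rest.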
These compounds were tested against Ras-related C3 botulinum toxin substrate 1 (Homo sapiens) (UniProt P63000) (assay: wildtype Rac1 GTP binding modulators, primary screen, biochemical, GST-Rac1 beads, flow cytometry, multiplex (AID 757)). Conditions: fluorescent GTP binding, at 10 µM, actives lie on both sides, 0 = cold GTP competed, 100 = untreated.

Compound | GTP binding activity (% of control)
O=C(NCc1cccnc1)C(=O)Nc1nc2ccccc2s1 | inconclusive: 92%
Cc1ccc2nc(-c3ccc(NC(=O)COC(=O)c4ccc([N+](=O)[O-])o4)cc3)sc2c1 | inconclusive: 108%
CCCC(Oc1ccc(Br)cc1)c1nc2c3cc(OC)c(OC)cc3nc(=S)n2[nH]1 (configuration not stated) | inconclusive: 93%
CCCCNC(=S)NC(=O)c1ccccc1Br | inconclusive: 104%
O=C(COc1cccc(NC(=O)c2ccco2)c1)c1ccc(F)cc1 | inconclusive: 106%
CCn1c(NC(=O)Nc2cccc(C)c2C)cc2sccc21 | inconclusive: 107%
CN1CCN(c2ccc(S(=O)(=O)N3CCCCC3)cc2NC(=O)c2ccc(F)cc2F)CC1 | inactive: 101%
N#CC1=C(N)C(C#N)(C#N)C(c2cccnc2)C2CCCC=C12 (configuration not stated) | inconclusive: 89%
CCn1cnc2sc(-c3ccccc3)cc2c1=O | inconclusive: 107%
N#CC(C#N)=C1C=CC=CN1/C(=C\c1ccccc1)C(=O)c1cccs1 | inactive: 98%
O=C(CCc1ccc(S(=O)(=O)NCCc2ccccc2)cc1)Nc1ccc2c(c1)OCO2 | active: 33%
C=CCn1c(SC)nc2sc3c(c2c1=O)CCc1ccccc1-3 | inconclusive: 104%
C[C@@H]1C[C@H](Nc2ccccc2)c2ccccc2N1C(=O)c1cccnc1 | inconclusive: 105%
Clc1cccc(Cl)c1/C=N\Nc1nccs1 | inconclusive: 11%
O=C(NN1C(=O)c2ccc(-c3ccc4c(c3)C(=O)N(NC(=O)c3cccnc3)C4=O)cc2C1=O)c1cccnc1 | inactive: 80%
COc1cccc(-n2nnc3c(=O)n(Cc4ccc(Cl)cc4)cnc32)c1 | inconclusive: 93%
CN(C)c1ccc(CN(C(=O)COc2ccc(Br)cc2)C2CCS(=O)(=O)C2)cc1 (configuration not stated) | inconclusive: 95%
Cc1nnc2ccc(-c3cccc(NC(=O)c4ccc(Cl)nc4)c3)nn12 | inactive: 86%
CN1CCN(C(=O)/C=C/c2cn(-c3ccccc3)nc2-c2ccc3c(c2)OCCO3)CC1 | inconclusive: 106%
O=C(CC(NCc1ccccn1)C(=O)O)Nc1ccccc1Cl (configuration not stated) | inconclusive: 100%
CCn1c(SCC(=O)Nc2oc(-c3ccccc3)c(-c3ccccc3)c2C#N)nnc1-c1cc(OC)cc(OC)c1 | inconclusive: 89%
CCOC(=O)Cc1csc(/N=C/c2c(O)n(-c3ccccc3C(F)(F)F)c(=O)c3ccccc23)n1 | inactive: 99%
NS(=O)(=O)c1ccc(Nc2nc(-c3ccc(F)cc3)cs2)cc1 | inactive: 96%

Compound | GTP binding activity (% of control)
CC(C)NC(=O)C(=O)NCCN1CCN(C(=O)c2ccc(C(C)(C)C)cc2)CC1 | inconclusive: 93%
Fc1ccc(/C=C2\CCCC3=C2Nc2ncnn2C3c2ccc(F)cc2)cc1 (configuration not stated) | inactive: 104%
CCNc1nc(SC)nc(N(C#N)CC(=O)OC)n1 | inconclusive: 103%
CCCCOc1ccc(/C(N)=N/O)cc1 | inactive: 109%
CCOc1cc(CNCc2ccncc2)cc(Cl)c1OC | inconclusive: 105%
Cn1cc(-c2nnnn2-c2ccccc2)c(=O)c2ccccc21 | inconclusive: 96%
O=C(CCn1c(=O)oc2ccccc21)N(Cc1ccccc1)c1ccccc1 | inactive: 99%
Cc1ccccc1C(=O)NNC(=O)c1cc(N)cc([N+](=O)[O-])c1 | inactive: 104%
Clc1ccc(/C=N/Nc2nc(Cl)nc3ccccc23)cc1 | inconclusive: 94%
Cc1ccc(CNC(=O)C2CCN(S(=O)(=O)c3c(C)noc3C)CC2)cc1 | inconclusive: 106%
COc1ccc(-c2nnc(CSc3nc4ccccc4c(=O)n3C)o2)cc1OC | active: 120% [activator]
Cc1cc(=O)n2c3ccccc3n(CC(O)CN3CCCC3)c2c1C#N (configuration not stated) | inconclusive: 105%
c1ccc(N2CCN(c3cnccn3)CC2)nc1 | inconclusive: 104%
O=C1CC(c2ccccc2)Sc2ccccc2N1 (configuration not stated) | inconclusive: 106%
CCOc1cccc(Nc2cc3n(c(=O)n2)CCc2cc(OC)c(OC)cc2-3)c1 | active: 78%
CNC(=O)c1cc2ccccc2o1 | inconclusive: 103%
COc1ccc(S(=O)(=O)NCC2CCCN(Cc3ccccc3C)C2)cc1 (configuration not stated) | inactive: 102%
CCC(C)(NC(=O)c1ccccn1)C(=O)NC1CCCC1 (configuration not stated) | inactive: 98%
O=C(NNC(=O)C1CCN(c2ncccn2)CC1)c1ccccc1 | inconclusive: 102%
Cc1ccc(CNC(=O)c2ccc3nc4[nH]c5ccccc5c4nc3c2)cc1 | inconclusive: 93%
CC(C)NC(=O)COc1ccc(/C=N/NS(=O)(=O)c2ccccc2)cc1 | inconclusive: 93%
Cc1ccc(NC(=O)c2ccccc2)cc1 | inconclusive: 107%
CCCCc1ccc(NC2=NCC(=O)N2CCc2ccccc2)cc1 | inactive: 94%

Compound | GTP binding activity (% of control)
CCN(Cc1ccccc1)c1ccc(/C=N/NS(=O)(=O)c2cccc([N+](=O)[O-])c2)cc1 | inactive: 104%
CCOC(=O)Cc1nn[nH]n1 | inactive: 92%
COc1ccc(C(O)(c2ccccc2OC)C(CN2CCOCC2)c2ccccc2)cc1 (configuration not stated) | inactive: 98%
COc1ccc(-n2c(SCC(=O)N3CCCC(C)C3)nnc2-c2cccnc2)cc1 (configuration not stated) | inconclusive: 98%
Cc1ccc(CCN=c2c([N+](=O)[O-])nn(-c3ccccc3)n2O)cc1 | inconclusive: 95%
O=C(COc1ccccc1)Nc1ccc(-c2nnc(-c3ccco3)o2)cc1 | inconclusive: 93%
CCOC(=O)c1ccc(NC(=O)c2c(NC(=O)CCC(=O)O)sc3c2CCCCC3)cc1 | inactive: 90%
COc1ccc(OC)c(NC2=NC3(CCCC3)N=C(N)N2)c1 | inconclusive: 84%
CCCCCCC(=O)NN1CCN(C)CC1 | inconclusive: 104%
CC(=O)c1c(C)[nH]c(C(=O)OCC(=O)Nc2ccccc2Cl)c1C | inconclusive: 98%
CC1=C(C(=O)OC(C)C)C(c2ccccc2)NC(=S)N1C (configuration not stated) | inactive: 103%
O=S1(=O)N=C(N(CCO)/N=C/c2ccccc2)c2ccccc21 | active: 70%
Cc1nnc(NC(=O)CSc2ccc3nnc(-c4ccccn4)n3n2)s1 | inactive: 98%
COc1cc(C(=O)Nc2cccc3ncccc23)cc(OC)c1OC | inactive: 103%
COc1cc(NC(=O)Cn2nc(C(F)(F)F)c(Br)c2C)cc([N+](=O)[O-])c1 | inactive: 100%
Cc1ccccc1OCCSc1nnc(-c2cccnc2)n1N | inactive: 100%
CC(C)N(C(=O)Cn1cnc2cc([N+](=O)[O-])ccc2c1=O)C(C)C | inconclusive: 78%
COc1ccc2[nH]c3nc(SCC(=O)Nc4ccc5c(c4)OCO5)nnc3c2c1 | inactive: 87%
Cc1ccc(CN2C(=O)CCC2C(=O)NCc2ccccc2Cl)cc1 (configuration not stated) | inconclusive: 104%
Cc1ccccc1NC(=O)CSc1ccsc1[N+](=O)[O-] | inactive: 102%
COc1ccc(/C=N/Nc2nc(-c3cccc(S(=O)(=O)N4CCCC4)c3)cs2)cc1OC | inconclusive: 93%
CCOC(=O)Cn1c(=O)c2c(nc3n2CCN3Cc2ccccc2)n(C)c1=O | inactive: 102%
Cc1ccc(NCC(=O)N/N=C/c2c[nH]c3ccccc23)cc1 | inconclusive: 93%

Compound | GTP binding activity (% of control)
NS(=O)(=O)c1ccc(N/C=C\C(=O)c2cccc3ccccc23)cc1 | inconclusive: 106%
COc1ccc(CC2(CO)CCN(S(=O)(=O)c3sccc3C)CC2)cc1 | active: 58%
CCCCCn1c(NC(=O)c2ccco2)c(S(=O)(=O)c2ccc(C)cc2)c2nc3ccccc3nc21 | inconclusive: 89%
Cc1nc(N/N=C/c2ccc(O)cc2)c2cnn(-c3ccccc3)c2n1 | inconclusive: 86%
CC(C)(C)NC(=O)CSc1nccn1Cc1ccccc1 | active: 75%
O=C(Nc1nc(-c2cccs2)cs1)c1ccco1 | inconclusive: 94%
O=C(CSCc1nc2c(nnn2Cc2ccc(F)cc2)c(=O)[nH]1)Nc1cccc(C(F)(F)F)c1 | inconclusive: 94%
CCC1=NN2C(=N)/C(=C\c3cccn3-c3c(C)cccc3C)C(=O)N=C2S1 | inconclusive: 89%
Cc1cc(C)n(-c2ccc(C(=O)Nc3cccc(S(=O)(=O)N(C)C)c3)cc2)n1 | inconclusive: 94%
O=C(Nc1ccccc1[N+](=O)[O-])c1nc[nH]c1C(=O)NCCO | inconclusive: 90%
O=C(Nc1ccccc1C(=O)O)c1ccc(Br)c(S(=O)(=O)NCc2ccccc2)c1 | inconclusive: 91%
N#C/C(=C/c1ccccc1[N+](=O)[O-])c1nc(C2CC2)cs1 | inconclusive: 103%
CCOc1cc(S(=O)(=O)NCc2ccccn2)ccc1Cl | inconclusive: 106%
Cc1ccc2c(c1)c1nnc(SCC(=O)Nc3ccccc3C(F)(F)F)nc1n2CC(=O)O | inactive: 86%
CC(=O)Nc1ccc(S(=O)(=O)NCCc2ccccn2)cc1 | inconclusive: 98%
Nc1c(C(=O)NCc2ccco2)sc2nc3c(cc12)C(=O)CCC3 | inconclusive: 96%
CN1CCN(C2=C(Cl)C(=O)N(Cc3ccccc3)C2=O)CC1 | inconclusive: 106%
CSCCC(NC(=O)c1ccco1)C(=O)NCc1ccc(F)cc1 (configuration not stated) | inconclusive: 104%
O=C(NNC(=O)C1CCN(c2ncccn2)CC1)c1ccncc1 | inconclusive: 99%
CC1(C)C2C/C(=N\O)C(C)(/[N+]([O-])=C/c3cccc([N+](=O)[O-])c3)CC21 (configuration not stated) | inactive: 94%
Cc1c(C(=O)N/N=C/c2ccc(O)c(Br)c2)sc(N)c1C#N | active: 76%
Cc1cccc(-n2c(SCC(N)=O)nnc2-c2ccccn2)c1C | inconclusive: 106%
Fc1ccc(Oc2nc(-c3ccccc3)nnc2C(F)(F)F)cc1 | inconclusive: 103%

Reference: PubChem BioAssay AID757 (NMMLSC, 2007)
